Measurements taken from the RNAGym collection of RNA variant scans (doi:10.1073/pnas.2313332121).
Variants at the floor of the assay are shown more often than the library holds them.

B1: TPR 5TU (parent)
chain: GGAUCUUCUCGAUCUAACAAAAAAGACAAAUCUGCCACAAAGCUUGAGAGCAUCUUCGGAUGCAGAGGCGGCAGCCUUCGGUGGCGCGAUAGCGCCAACGUUCUCAACUAUGACACGCAAAACGCGUGCUCCGUUGAAUGGAGUUUAUCAUG

Variants of: B1
Assay: polymerase ribozyme fitness, log enrichment relative to wild type (log ratio); higher = more active; in vitro selection for triplet polymerase activity
Summary of the method: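 One round of in vitro selection, in triplicate, was applied to PCR-built, transcribed mutant libraries of each subunit of a heterodimeric triplet polymerase ribozyme. The steps were annealing with a biotinylated primer, partner subunit and triplets, incubation frozen at −7 °C, gel excision of extended constructs, streptavidin-bead capture and RT-PCR. Fitness is the logarithm, base 2, of genotype enrichment over wild-type enrichment from inverse-variance-weighted replicate averages of Illumina-sequenced inputs and outputs, keeping genotypes with ≥10 input reads and ≥1 read per output.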

Variant	polymerase ribozyme fitness (log ratio)
GGAUCUUCUCGGUCUAACAAAAAAGAAAAAUCUGCCACAAAGCUUGAGAGCAUCUUCGGAUGCAGAGGCGGCAGCAUUCGGUGGCGCGAUAGCGCCAACGUUCUCAACUAUGACACGCAAAACGCGUGCUCCGUUGAAUGGAGUUUCACAUG [A12G C27A C76A A147C U148A]	≤ -4.2
GGAUCUUCUCGGUCUAACAAAAAAGACAAAUCUGCCACAAAGCUUGAGAGCAUUUUCGGAUGCAGAGGCGGCAGCCUUCGGUGGCUCGAUAGCGCCAACGUUCUUAACUAUGACACGCAAAACGCGUGCUCCGUUGAAUGGAAUUUAUCAUG [A12G C54U G86U C105U G143A]	-2.5
GGAUCUUCUCGGUCUAACAAAAAAGACAAAUCUGCCACAAAGUUUGAGAGCAUCUUCGUAUGCAGAGGCGGCAGCCUUCGGAGGCGCGAUAGCGCCAACGUUCUCAACUAUGACACACAAAACGCGUGCUCCGUUGAAUGGAGUUUAUCAUG [A12G C43U G59U U82A G117A]	≤ -4.2
GGAUCUUCUCGGUCUAACAAAAAAGACAAAUCUGCCACAAAGCUUGAGAGCAUCUUCGGAUGCAGAGGAGGCAGCCUUCGGUGGCGCGAUAGCGCUAACGUUCUCAACUAUGACACGCAACACGCGGGCUCCGUUGAAUGGAGUUUUUCAUG [A12G C69A C96U A121C U127G A147U]	-4.02
GGAUCUUCUCGGUCUAAGAAAAAAGACAUAUCUACCACAAAGCUUGAGAGCAUCUUCGGAUGCAGAGGCGGCAACCUUCGGUGGCGCGAUAGCGCCAACGUUCUCAACUAUGACACGCAAAACGCGUGCUCCGUUAAAUGGAGUUUAUCAUG [A12G C18G A29U G34A G74A G136A]	≤ -4.2
GGAUCUUCUCGGUCUAACAAAAAAGAGAAAUCUGCCACAAAGCUUGAGAGCAUCUUCGGAUGCAGAGGCGGCAGCCUUCGGUGGCGCGAUAGCGCCGACGUUCUCAACUAUGACACGCAAAACGUGUGCUCCGUUGAAUGGAGUUAAUCAUG [A12G C27G A97G C125U U146A]	≤ -4.2
GGAUCUUCUCGGUCUAACAAAAAAGACAAAUCUGCCACAAAGCUUGAGAGCAUCUUAGCAUGCAGAGGCGGCAGCCUUUGGUGGCGCGAUAGCGCCAACGUUCUCAACUAUGACAGGCAAAACGCGUGCUCCGUUAAAUGCAGUUUAUCGAG [A12G C57A G59C C79U C116G G136A G141C A150G U151A]	≤ -4.2
GGAUCUUCUCGGUCUAACAAAAAAGACAAAUCUGUCACAAAGCUUGAGAGCAUCGUCGGAUGCAGAGGCGGCAGCCUUCGGUGGCGGGAUAGCGCCAACGUUCUCAACUAUGACUCGCAAAACGCGUGCUCCGUUGAAUGGAGUUUAUCAUG [A12G C35U U55G C87G A115U]	-4.17
GGAUCUUCUCGGUCUAACAAAAAAGACAAAUCUGCCACAAAGCUUGAGAGCAUAUUCGGAUGCAGAGGCGGCAGCCUUCGGUGGCGCGAUAGCGCCAAUGUUCUCAACUAUGACACGCAAAACGCGUGCUCCGUUGAAUGGAGUUUAUCAUG [A12G C54A C99U]	-1.32
GGAUCUUCUCGGUCUAACAAAAAAGACAAAUCUGCCACAAAGCUUGAGAGCAUUUUCGGAUGCAGAGGCGGCAGCCUUCGGUGGCGCGAUAGCGCCAACGUUCUCAAGGAUGACACGCAAAACGCGUGCGCCGUUGAAUGGAGUUUAUCAUG [A12G C54U C108G U109G U130G]	≤ -4.2
GGAUCUUCUCGGUCUAACAAAAAAGACAAAUCUGCCACAAAGCUUGAGAGCAUUUUCGGAUGCAGAGCCGGCAGCCUUCGGUGGCGCGAUAGCGCCAAUGUUCUCAACUAUGACACGCAAAACGCGUGCUCCCUUGUAUGGAGUUUAUCAUG [A12G C54U G68C C99U G133C A137U]	≤ -4.2
GGAUCUUCUCGGUCUAACAAAAAAGACAAAUAUUCCACAAAGCUUGAGAGCGUUAUCGGAUGUAGAGGCGGCAGCCUUCGGUGGGGCGAUAGCGCCAACGUUCUCAACUAUAACACGCAUAACGCGUGCUCCGUUGAAUGGAGGUUAUCAUG [A12G C32A G34U A52G C54U U55A C63U C85G G112A A120U U144G]	≤ -4.2
GGAUCUUCUCGGUCUAACAAAAAAGACAAAUCUGCAACAAAGCUUGAGAGCAUCUUCGGAUGCAGAGGUGGCAGCCUUCGGUGGGGCGCUAGCGCCAACGUUCUCAACUAUGUCACGCAAAACGCGUGCUCCGUUGAAUGGAGUUUAUCAUG [A12G C36A C69U C85G A89C A113U]	≤ -4.2
GGAUCUUCUCGGUUUAACAAAAAAGACAAAUCUGCCACAAAGCUUGAGAACAACUUCGGAUGCAGAGGCGGCAGCCUUCGGUGGCGCGAUAGCGUCAAAGUUCUCAACUAUGACAUGCAAAACGCGUGCUCCGUUGAAUGGAGUUUAUCUUG [A12G C14U G50A U53A C95U C99A C116U A150U]	-4.15
GGAUCUUCUCGGUCUAAUAAAAAAGACAAAUCUGCCACAAAGCUUGAGAGCAUCUUCGGAUGCAGAGGCGGCAGCCUUCGGUUGCGCGGUAGCGCUAACGUUCUCAACUAUGACACGCAAAACGCGUGCUCCGUUGAAUGGAGUUUAUCAUG [A12G C18U G83U A89G C96U]	-1.73
GGAUCUUCUCGGUCUAACAAAAAAGACAAAUCUGCCACAAAGCUUGAGAGCAUCUUCGGAUGCAGAGGCGGCAGCCUUCGGUGGAGCGAUAGCGCCAACGUUCUCAAUUAUGACACGCAAAACGCGUGCUCCGUUGAAUGGAGUUUAUCAUG [A12G C85A C108U]	≤ -4.2
GGAUCUUCUCGGUCUAAUAAAAAUGACGAAUCUGCCACAAAGCUUGAGAACACCUUCGGAUGCAGAGGCGGCAGCCUUACGUGGCGCGAUAGCACCAACGUUCUCAACUAUGACAAGCAAAACGCGUGCUCCGUUGACUGGAGUUUAUCAUG [A12G C18U A24U A28G G50A U53C C79A G80C G94A C116A A138C]	≤ -4.2
GGAUCUUCUCGGUCUAACAAAAAAGACAAAUCUGCCACAAAGCUUGAGAGCAUCUUCGGAUGUAGAGGCGGCAGCCUUCGGUCGCGCGAUAGCGUCAACGUUCUCAACAAUGACACGCAAAACGCGUGCUCCGUUGAAUGGAGUUUAUCAUG [A12G C63U G83C C95U U109A]	-2.16
GGAUCUUCUCGGUCUAACAAAAAAGACAAAUCUGCCACAAAGCUUGAGAGCAUUUUCGGAUGCAGAGGGGGCAGCCUUCGGUGGCGCGAUAGCGCCAACGUUCUCAACUAUGACACGCAAAACGCGUGCUCCGUUGAAUGGAGUGUAUCAUG [A12G C54U C69G U145G]	-4.06
